# Some of the results follow.
# B1: PhoQ; a variant is named by its letters at X, in order, P23837 (parent)
# chain: MKKLLRLFFPLSLRVRFLLATAAVVLVLSLAYGMVALIGYSVSFDKTTFRLLRGESNLFYTLAKWENNKLHVELPENIDKQSPTMTLIYDENGQLLWAQRDVPWLMKMIQPDWLKSNGFHEIEADVNDTSLLLSGDHSIQQQLQEVREDDDDAEMTHSVAVNVYPATSRMPKLTIVVVDTIPVELKSSYMVWSWFIYVLSANLLLVIPLLWVAAWWSLRPIEALAKEVRELEEHNRELLNPATTRELTSLVRNLNRLLKSERERYDKYRTTLTDLTHSLKTPLXXLQXXLRSLRSEKMSVSDAEPVMLEQISRISQQIGYYLHRASMRGGTLLSRELHPVAPLLDNLTSALNKVYQRKGVNISLDISPEISFVGEQNDFVEVMGNVLDNACKYCLEFVEISARQTDEHLYIVVEDDGPGIPLSKREVIFDRGQRVDTLRPGQGVGLAVAREITEQYEGKIVAGESMLGGARMEVIFGRQHSAPKDE
# Variants of: B1
# Assay: enrichment ratio after two sorts for PhoP signalling (ratio (wild type AVST 3.29)); higher = more functional
# Conditions: with PhoP (E. coli)
row,Variant,enrichment ratio
1,INFM,≤ 0.25
2,YNYQ,≤ 0.25
3,IGFE,≤ 0.25
4,RSPE,≤ 0.25
5,WSRK,≤ 0.25
6,TPYG,≤ 0.25
7,ASAL,11.7
8,IGKY,≤ 0.25
9,KLES,≤ 0.25
10,HPLH,≤ 0.25
11,WRFL,≤ 0.25
12,EVED,≤ 0.25
13,VPWM,≤ 0.25
14,ASDE,≤ 0.25
15,KSTP,≤ 0.25
16,PWAR,≤ 0.25
17,ICFE,≤ 0.25
18,TGKW,≤ 0.25
19,FRNY,≤ 0.25
20,AKFI,≤ 0.25
21,SLHV,0.521
22,QDNG,≤ 0.25
23,SVVY,≤ 0.25
24,TTHC,3.4
25,DTPY,≤ 0.25
26,PGVQ,≤ 0.25

row,Variant,enrichment ratio
1,LTPT,≤ 0.25
2,EQSH,≤ 0.25
3,EDFR,≤ 0.25
4,NNIS,≤ 0.25
5,NPMG,≤ 0.25
6,TTKK,≤ 0.25
7,AYVG,≤ 0.25
8,TYWH,≤ 0.25
9,QEEA,≤ 0.25
10,NMFH,≤ 0.25
11,NFGH,≤ 0.25
12,FRFL,≤ 0.25
13,FQGT,≤ 0.25
14,DQLP,≤ 0.25
15,GQLN,0.908
16,FYII,≤ 0.25
17,HFIR,≤ 0.25
18,WHYT,≤ 0.25
19,IDNN,≤ 0.25
20,PTRC,≤ 0.25
21,GSVT,0.744
22,THVD,≤ 0.25
23,LMTY,≤ 0.25
24,FHLT,≤ 0.25
25,LDRD,≤ 0.25
26,RFSK,≤ 0.25

row,Variant,enrichment ratio
1,SAEP,≤ 0.25
2,MVKS,≤ 0.25
3,QMTQ,≤ 0.25
4,WESY,≤ 0.25
5,ANTL,12.9
6,RRAY,≤ 0.25
7,GLHH,≤ 0.25
8,SGPI,≤ 0.25
9,QYRY,≤ 0.25
10,MLHP,≤ 0.25
11,YHTR,≤ 0.25
12,EAGI,≤ 0.25
13,RSMN,≤ 0.25
14,TEFW,≤ 0.25
15,RGCA,≤ 0.25
16,LWCL,≤ 0.25
17,FREV,≤ 0.25
18,KTDY,≤ 0.25
19,HAKC,≤ 0.25
20,TCRL,4.94
21,RRGW,≤ 0.25
22,DKMY,≤ 0.25
23,PLRT,≤ 0.25
24,PCAQ,≤ 0.25
25,TVAK,9.5
26,WDWD,≤ 0.25

row,Variant,enrichment ratio
1,SCGA,7.34
2,EYKC,≤ 0.25
3,LGIK,≤ 0.25
4,RSMS,≤ 0.25
5,GRRV,≤ 0.25
6,DYCP,≤ 0.25
7,YILL,4.71
8,VILD,≤ 0.25
9,HRIW,≤ 0.25
10,TWDM,≤ 0.25
11,PCHI,≤ 0.25
12,NDVN,≤ 0.25
13,FASE,≤ 0.25
14,FVKD,≤ 0.25
15,DRGP,≤ 0.25
16,IFGF,≤ 0.25
17,RCQF,≤ 0.25
18,GTVN,≤ 0.25
19,KYQD,≤ 0.25
20,RRFF,≤ 0.25
21,MWTW,≤ 0.25
22,QIYK,≤ 0.25
23,PLMP,≤ 0.25
24,WYRM,≤ 0.25
25,SPDT,≤ 0.25
26,DNHW,≤ 0.25

row,Variant,enrichment ratio
1,AGWK,≤ 0.25
2,EVQQ,≤ 0.25
3,PHET,≤ 0.25
4,FAFY,≤ 0.25
5,RLYM,≤ 0.25
6,PCRT,≤ 0.25
7,AKKH,≤ 0.25
8,HRPP,≤ 0.25
9,SCFV,≤ 0.25
10,MGPS,≤ 0.25
11,VGSV,2.7
12,RAQV,≤ 0.25
13,SCFP,≤ 0.25
14,THNG,4.5
15,IKSN,≤ 0.25
16,ESLV,≤ 0.25
17,WKLN,≤ 0.25
18,RKDM,≤ 0.25
19,HGWV,≤ 0.25
20,TDPL,≤ 0.25
21,LWAE,≤ 0.25
22,HTNR,≤ 0.25
23,LYYQ,≤ 0.25
24,TAFN,1.93
25,MRKM,≤ 0.25
26,HHCQ,≤ 0.25

row,Variant,enrichment ratio
1,FTNG,≤ 0.25
2,KEHF,≤ 0.25
3,MMGV,≤ 0.25
4,RYMG,≤ 0.25
5,GEWP,≤ 0.25
6,AQGL,0.616
7,ICWD,≤ 0.25
8,FTRP,≤ 0.25
9,YAQH,≤ 0.25
10,IIQH,≤ 0.25
11,MYYA,≤ 0.25
12,LSNM,≤ 0.25
13,RFMH,≤ 0.25
14,RRFQ,≤ 0.25
15,GMLW,≤ 0.25
16,TGDP,≤ 0.25
17,HREW,≤ 0.25
18,ISAI,≤ 0.25
19,GTMH,≤ 0.25
20,VCYR,≤ 0.25
21,IRCK,≤ 0.25
22,YTVK,≤ 0.25
23,RSDD,≤ 0.25

# From a collection of fitness landscapes (doi:10.1126/science.1257360)
